Assay results taken from PubChem BioAssay AID1347165 (National Center for Advancing Translational Sciences (NCATS), 2019).
The campaign covered roughly 220,000 compounds. About 5,700 (2.6%) were called active. Inconclusive results, whose numbers are uncertain, are shown with a selection of clear calls. The call rests on the fitted dose curve; in most records, active means well fitted inhibition curve with a large enough effect; inconclusive means small, poorly fitted or top-dose-only effect; inactive means no such curve, though single readings can be large or run the other way. Where the call is inconclusive, the potency comes from a doubtful curve fit.

target: Lysine-specific demethylase 5B (Homo sapiens) (UniProt Q9UGL1); test: Primary screen for KDM5B Histone Demethylases FDH-coupled qHTS; conditions: FDH-coupled NADH fluorescence (FDH is formaldehyde dehydrogenase); series mostly up to 57.7 µM; further: nearly all actives have a fitted effect of over 70% in size
UniProt Q9UGL1, sequence (Q9UGL1 whole entry, looked up): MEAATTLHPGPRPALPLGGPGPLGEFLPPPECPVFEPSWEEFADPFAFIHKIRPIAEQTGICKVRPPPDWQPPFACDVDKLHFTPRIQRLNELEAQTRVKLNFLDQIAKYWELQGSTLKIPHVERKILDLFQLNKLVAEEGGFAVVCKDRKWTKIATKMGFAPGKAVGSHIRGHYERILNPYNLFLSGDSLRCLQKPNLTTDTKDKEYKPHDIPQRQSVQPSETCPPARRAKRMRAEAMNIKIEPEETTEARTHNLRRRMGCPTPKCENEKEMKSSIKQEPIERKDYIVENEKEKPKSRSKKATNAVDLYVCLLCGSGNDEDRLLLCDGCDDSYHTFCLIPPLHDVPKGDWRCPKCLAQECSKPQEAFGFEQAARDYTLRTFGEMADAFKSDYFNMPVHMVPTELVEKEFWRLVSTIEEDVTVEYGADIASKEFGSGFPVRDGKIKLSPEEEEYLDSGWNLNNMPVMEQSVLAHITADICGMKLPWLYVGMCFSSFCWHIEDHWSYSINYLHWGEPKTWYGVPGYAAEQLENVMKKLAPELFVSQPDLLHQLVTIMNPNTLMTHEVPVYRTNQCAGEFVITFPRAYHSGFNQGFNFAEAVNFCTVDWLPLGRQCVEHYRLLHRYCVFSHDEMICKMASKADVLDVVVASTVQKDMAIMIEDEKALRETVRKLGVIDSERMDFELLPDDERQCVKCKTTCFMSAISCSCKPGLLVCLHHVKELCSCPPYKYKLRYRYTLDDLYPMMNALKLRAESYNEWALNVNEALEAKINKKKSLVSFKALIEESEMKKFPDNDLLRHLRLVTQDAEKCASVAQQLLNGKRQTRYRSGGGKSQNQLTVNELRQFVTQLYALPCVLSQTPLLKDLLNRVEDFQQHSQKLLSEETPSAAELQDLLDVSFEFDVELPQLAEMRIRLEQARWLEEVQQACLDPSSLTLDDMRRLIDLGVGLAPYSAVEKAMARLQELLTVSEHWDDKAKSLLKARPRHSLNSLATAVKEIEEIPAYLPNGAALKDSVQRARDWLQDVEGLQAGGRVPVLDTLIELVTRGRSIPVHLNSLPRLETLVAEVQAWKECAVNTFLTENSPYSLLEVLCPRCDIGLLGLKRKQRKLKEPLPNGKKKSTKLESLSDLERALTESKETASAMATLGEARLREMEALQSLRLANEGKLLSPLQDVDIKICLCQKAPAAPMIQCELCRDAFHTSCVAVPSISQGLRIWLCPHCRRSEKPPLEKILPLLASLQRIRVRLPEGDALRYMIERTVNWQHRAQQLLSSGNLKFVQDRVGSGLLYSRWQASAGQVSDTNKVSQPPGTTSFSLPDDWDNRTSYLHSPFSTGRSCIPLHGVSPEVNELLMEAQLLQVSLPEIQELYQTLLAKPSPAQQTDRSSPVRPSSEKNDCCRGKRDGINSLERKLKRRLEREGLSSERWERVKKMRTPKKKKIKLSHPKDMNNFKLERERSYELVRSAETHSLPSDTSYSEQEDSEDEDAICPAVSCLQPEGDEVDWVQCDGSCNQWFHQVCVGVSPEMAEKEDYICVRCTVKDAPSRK
Method in brief: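 Coupled FDH/NAD⁺ fluorescence readout. KDM5BΔAP 200 nM final; compound titration, 10 min RT preincubation; substrate mix 12.5 µM H3K4me3, 25 µM 2-OG, 50 µM Fe(II), 100 µM ascorbate, 0.25 mM NAD⁺, 0.25 U/mL FDH; ΔRFU over 30 min.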
Potency means the concentration at half of the fitted maximal effect; tags describe the fitted curve by direction and shape.

**Q.** For Cc1cc2n(n1)CCC(=O)N2Cc1ccc(C(=O)Nc2cccc(C(F)(F)F)c2)cc1, which Potency is on record?
**A.** inconclusive: 2.24 µM [inhibitor, partial curve, poor fit]

**Q.** For COC(=O)c1ccc(COC(=O)c2ccc(Cl)cc2O)cc1, which Potency is on record?
**A.** inconclusive: 39.8 µM [inhibitor, partial curve, poor fit]

**Q.** For Cc1nc2n(c1C(=O)NCCc1ccccc1)CCC(Nc1cccnc1)C2 (stereo not given), which Potency is on record?
**A.** inconclusive: 11.2 µM [inhibitor, full curve, poor fit]

**Q.** With CC(C)CCN1CCc2c(n(Cc3cccnc3)n(CCc3ccccc3)c2=O)C1 as the molecule, how does the Potency read?
**A.** active: 31.6 µM

**Q.** With COCC1CN(C2CCC2)CC12CCN(C(=O)c1cccc(C#N)c1)CC2 (stereo not given) as the molecule, how does the Potency read?
**A.** inconclusive: 12.6 µM [inhibitor, partial curve]

**Q.** Which Potency does the source give for O=C(c1cc2ccc3cccnc3c2[nH]1)N1CCN(c2cccc(Cl)c2)CC1 here?
**A.** inconclusive: 25.1 µM [inhibitor, single point]

**Q.** For Cc1ccc(-c2cc3c(=O)n(CCNC(=O)c4ccc5cc[nH]c5c4)ccn3n2)cc1C, which Potency is on record?
**A.** active: 35.5 µM

**Q.** Which Potency does the source give for CC1(CCCCc2ccccc2)COc2ccc(C(=O)N3CCOCC3)cc2N1 (stereo not given) here?
**A.** inconclusive: 31.6 µM [inhibitor, partial curve]

**Q.** Which Potency does the source give for CCONC(=O)c1ccc2c(c1)NC(=O)CS2 here?
**A.** inactive

**Q.** CCS(=O)(=O)N1CCc2cc(C(=O)NCc3ccccc3Cl)ccc21 was tested. Which Potency did it give?
**A.** inconclusive: 39.8 µM [inhibitor, single point]

**Q.** Which Potency does the source give for COc1ccc(C(=O)N[C@@H]2CCC[C@@H]2C(=O)NCCCN2CCOCC2)cn1 here?
**A.** inactive

**Q.** COc1cc(OC)cc(C(=O)NCCc2csc(-c3ccc(C(F)(F)F)cc3)n2)c1 was tested. Which Potency did it give?
**A.** inconclusive: 22.4 µM [inhibitor, partial curve, poor fit]

**Q.** For CS(=O)(=O)N1CCCN(Cc2ccccn2)CCNC(=O)CC1c1ccccc1 (stereo not given), which Potency is on record?
**A.** inconclusive: 25.1 µM [inhibitor, single point]

**Q.** O=C(CN1N=C(c2ccccc2)c2cc(Cl)ccc2S1(=O)=O)Nc1ccc(F)cc1F was tested. Which Potency did it give?
**A.** inactive

**Q.** Which Potency does the source give for COc1ccc(C2C=C3c4cc5c(cc4CCN3C3=C2C(=O)CCC3)OCCCO5)cc1 (stereo not given) here?
**A.** inconclusive: 28.2 µM [inhibitor, partial curve, poor fit]

**Q.** For CC(C)(C)c1ccc(C(=O)Nc2ccc(C(O)[C@H]3COCC(=O)N3Cc3ccccc3)cc2)cc1 (stereo not given in full), which Potency is on record?
**A.** inconclusive: 31.6 µM [inhibitor, single point]

**Q.** Which Potency does the source give for CN(CC(=O)Nc1ccccc1Cl)CC(=O)N1CCC(Cc2ccccc2)CC1 here?
**A.** inconclusive: 12.6 µM [inhibitor, partial curve, poor fit]

**Q.** With CCC(=O)Nc1sc2c(c1C(=O)Nc1ccc(Br)cc1)CCCCC2 as the molecule, how does the Potency read?
**A.** inconclusive: 7.08 µM [inhibitor, partial curve, poor fit]

**Q.** Which Potency does the source give for O=C(c1ccco1)N1CCC(O)(c2ccccc2)[C@H](N2CCCC2)C1 (stereo not given in full) here?
**A.** inconclusive: 8.91 µM [inhibitor, partial curve]

**Q.** CN1c2cc(C(=O)N3CCN(c4ccccc4F)CC3)ccc2C(=O)N2CCCCC21 (stereo not given) was tested. Which Potency did it give?
**A.** inconclusive: 20 µM [inhibitor, partial curve, poor fit]

**Q.** COCCCNc1nc(NCc2ccc(C)cc2)c2cnn(C)c2n1 was tested. Which Potency did it give?
**A.** inconclusive: 50.1 µM [inhibitor, single point]

**Q.** For COc1cccc2c1cc1c(=O)n(CC(=O)N3CCC(C)CC3)nc(C)n12, which Potency is on record?
**A.** inconclusive: 15.8 µM [inhibitor, partial curve, poor fit]

**Q.** How did the Potency turn out when CC1(C)CC(NCCNC2CC(C)(C)NC(C)(C)C2)CC(C)(C)N1 was run?
**A.** inactive

**Q.** How did the Potency turn out when Cc1cccc(N2CCN(C(=O)c3cc4ccc5cccnc5c4[nH]3)CC2C)c1 (stereo not given) was run?
**A.** inconclusive: 15.8 µM [inhibitor, partial curve, poor fit]

**Q.** How did the Potency turn out when O=c1c2ccccc2n(Cc2cccc(Cl)c2)c(=O)n1Cc1ccccc1 was run?
**A.** inconclusive: 25.1 µM [inhibitor, partial curve, poor fit]

**Q.** Which Potency does the source give for Cc1ccc(CCC(=O)N[C@H](C2CCNCC2)C2CC(O)C2)cc1C (stereo not given in full) here?
**A.** inactive

**Q.** Which Potency does the source give for O=C(Cc1ccccc1Cl)NC1CCN(c2cc(-c3ccccc3)[nH]n2)C1 (stereo not given) here?
**A.** inactive

**Q.** How did the Potency turn out when O=C(NCc1cccs1)c1ccc2ccccc2c1 was run?
**A.** inactive

**Q.** For O=C(c1cc2cc(F)ccc2[nH]1)N1CCN(c2cccc(Cl)c2)CC1, which Potency is on record?
**A.** inconclusive: 39.8 µM [inhibitor, single point]

**Q.** CCOC(=O)c1ccc(NC(=S)N(CCO)Cc2ccccc2)cc1 was tested. Which Potency did it give?
**A.** inactive

**Q.** CCCOc1nccnc1NC1CCN(S(=O)(=O)C2CC2)CC1 was tested. Which Potency did it give?
**A.** active: 15.8 µM

**Q.** How did the Potency turn out when CCCCNC(=O)CN1CCN(c2ncc(NC(=O)c3ccc(Cl)cc3)cc2C(=O)O)CC1 was run?
**A.** inconclusive: 14.1 µM [inhibitor, partial curve, poor fit]

**Q.** How did the Potency turn out when CCN(CC)CCNC(=O)c1sc2ncccc2c1-n1c(C)ccc1C was run?
**A.** inconclusive: 28.2 µM [inhibitor, single point]

**Q.** Cc1ccc(S(=O)(=O)N2CCCC2c2nc3ccccc3[nH]2)cc1C (stereo not given) was tested. Which Potency did it give?
**A.** inconclusive: 1.78 µM [inhibitor, partial curve, poor fit]

**Q.** For COc1ccc(-c2ccnc3nc(C4CC4)nn23)c(F)c1, which Potency is on record?
**A.** active: 25.1 µM

**Q.** CCC1=C(C(=O)OC)C(c2ccccc2F)N2C(CC(=O)NCC3CC3)=CSC2=N1 (stereo not given) was tested. Which Potency did it give?
**A.** inconclusive: 35.5 µM [inhibitor, partial curve, poor fit]

**Q.** For COc1ccc(S(=O)(=O)N2CCn3cccc3C2c2cccs2)cc1C (stereo not given), which Potency is on record?
**A.** inconclusive: 25.1 µM [inhibitor, single point]

**Q.** Which Potency does the source give for COC(=O)[C@H](NC(=O)[C@@H]1C[C@H](NC(=O)Nc2ccc(OC)cc2)CN1C(=O)C=C(C)C)C(C)C here?
**A.** inactive

**Q.** How did the Potency turn out when O=C1CN(C(=O)c2ccnc(-c3nnc4ccc(Nc5ccccc5)nn34)c2)CCN1 was run?
**A.** inconclusive: 35.5 µM [inhibitor, single point]

**Q.** How did the Potency turn out when COc1ccc(CCNC(=O)c2ccc(Cn3c(=O)[nH]c4cc(OC)c(OC)cc4c3=O)cc2)cc1OC was run?
**A.** inconclusive: 20 µM [inhibitor, partial curve, poor fit]

**Q.** Which Potency does the source give for Cc1cc(=O)oc2cc(OC(C)C(=O)NC3CC(C)(C)NC(C)(C)C3)ccc12 (stereo not given) here?
**A.** inconclusive: 20 µM [inhibitor, partial curve, poor fit]

**Q.** CC(=O)Nc1ccc(C(=O)CSc2ccc(Cl)cc2)cc1 was tested. Which Potency did it give?
**A.** inactive

**Q.** O=C(O)C[C@@H]1CCN(S(=O)(=O)c2ccccc2)C[C@@H]1CCN1CCN(c2cccc(C(F)(F)F)c2)CC1 was tested. Which Potency did it give?
**A.** inactive

**Q.** CCC(=O)Nc1cc(C(=O)NCc2ccc(N3CCN(C)CC3)cc2)c2ccc(C)nc2c1 was tested. Which Potency did it give?
**A.** inconclusive: 8.91 µM [inhibitor, partial curve]

**Q.** CCOC(=O)N1CCN(C(=O)c2cc(-c3cccs3)nc3ccccc23)CC1 was tested. Which Potency did it give?
**A.** inconclusive: 25.1 µM [inhibitor, partial curve, poor fit]

**Q.** With O=C(COCc1cc(-c2cccs2)on1)Nc1cc(C(F)(F)F)ccc1Cl as the molecule, how does the Potency read?
**A.** inactive

**Q.** CC(C)OCCCNC(=O)CCCN1C(=O)CCn2nc(-c3cccn3C)cc21 was tested. Which Potency did it give?
**A.** inconclusive: 1.26 µM [inhibitor, partial curve, poor fit]

**Q.** How did the Potency turn out when CN(Cc1ccc(F)cc1)C(=O)c1ccccc1Cl was run?
**A.** inactive

**Q.** For COc1ccc(-c2cc(C(F)(F)F)nc(NCc3ccc(F)cc3)n2)cc1, which Potency is on record?
**A.** inconclusive: 31.6 µM [inhibitor, partial curve, poor fit]

**Q.** Cn1cccc1CN1CC[C@@H]2CN(S(C)(=O)=O)[C@@H]2C1 was tested. Which Potency did it give?
**A.** inconclusive: 22.4 µM [inhibitor, partial curve]

**Q.** How did the Potency turn out when CC1CCCCN1CCCNC(=O)Cn1ncc2c3ccccc3n(C)c2c1=O (stereo not given) was run?
**A.** inconclusive: 11.2 µM [inhibitor, partial curve, poor fit]

**Q.** COc1ccc(N2C(=O)CSC23CCN(C(=O)Nc2ccc(F)cc2F)CC3)cc1 was tested. Which Potency did it give?
**A.** inactive

**Q.** Which Potency does the source give for O=C(c1nc(-c2ccc(Cl)cc2)c2ccccn12)N1CCN(c2ncccn2)CC1 here?
**A.** active: 25.1 µM

**Q.** CCCc1ccc(NC(=O)c2n[nH]c(=O)c3ccccc23)cc1 was tested. Which Potency did it give?
**A.** inactive

**Q.** For COC(=O)Cc1c(C)c2ccc(OCc3ccccc3F)c(C)c2oc1=O, which Potency is on record?
**A.** inconclusive: 2.82 µM [inhibitor, full curve, poor fit]

**Q.** Cc1c(Cc2ccccc2)c(=O)oc2c(C)c(OCC(=O)N(C)C)ccc12 was tested. Which Potency did it give?
**A.** inconclusive: 14.1 µM [inhibitor, partial curve, poor fit]

**Q.** Which Potency does the source give for CCOC(=O)C(NC(=O)C1CC1c1cccc(C)c1)C(=O)OCC (stereo not given) here?
**A.** inactive

**Q.** With Cc1ccc(C(=O)COC(=O)C2CC3CCCC(C2)C32SCCS2)s1 (stereo not given) as the molecule, how does the Potency read?
**A.** inactive

**Q.** How did the Potency turn out when CNC(=O)[C@@H]1CN(C(=O)Cn2ccnc2C)C[C@H]1c1nc(COC)no1 was run?
**A.** inactive

**Q.** Which Potency does the source give for CCOC(=O)C1=C(C)N=C2SC=C(CC(=O)NCc3ccco3)N2C1c1cccc(OC)c1OC (stereo not given) here?
**A.** inconclusive: 15.8 µM [inhibitor, partial curve, poor fit]

**Q.** COCCCn1c(=N)c(C(=O)NC2CCCCC2)cc2c(=O)n3cc(C)ccc3nc21 was tested. Which Potency did it give?
**A.** inconclusive: 2 µM [inhibitor, partial curve, poor fit]

**Q.** With COc1cccc(CN(C)C(=O)c2cc(-c3ccc(OC)c(OC)c3)nc3ccccc23)c1 as the molecule, how does the Potency read?
**A.** inconclusive: 31.6 µM [inhibitor, partial curve, poor fit]

**Q.** How did the Potency turn out when CCN(CC)c1ccc(C=Nc2ccc(F)cc2)cc1 was run?
**A.** inconclusive: 39.8 µM [inhibitor, single point]

**Q.** Which Potency does the source give for c1ccc(-c2noc(-c3ccn4c(CN5CCN(c6ccccn6)CC5)nnc4c3)n2)cc1 here?
**A.** inconclusive: 5.62 µM [inhibitor, partial curve, poor fit]

**Q.** Which Potency does the source give for Cc1ccc(C(=O)N2CCC(C)CC2)cc1NC(=O)c1nsc2ccccc12 here?
**A.** inconclusive: 35.5 µM [inhibitor, single point]
